# Measured values taken from a collection of fitness landscapes (doi:10.1016/j.celrep.2020.107928).
# The full ranking holds about 81,000 sequences; the median of “one-hybrid fitness for binding NBS DNA” is about -0.1, and the highest 2% start at about 0.36. The list shows a part of the results.
# B1: Caulobacter ParB omega fusion; a variant is named by its letters at X, in order, B8GW30 (parent)
# chain: MESVVVGEPGMSEGRRGLGRGLSALLGEVDAAPAQAPGEQLGGSREAPIEILQRNPDQPRRTFREEDLEDLSNSIREKGVLQPILVRPSPDTAGEYQIVAGERAWRAAQRAGLKTVPIMVRELDDLAVLEIGIIENVQRADLNVLEEALSYKVLMEKFERTQENIAQTIGKSXSHVANXMRLLXLPDEVQSYLVSGELTAXHARAIAAAADPVALAKQIIEGGLSVRETEALARKAPNLSAGKSKGGRPPRVKDTDTQALESDLSSVLGLDVSIDHRGSTGTLTITYATLEQLDDLCNRLTRGI
# Variants of: B1
# Assay: one-hybrid fitness for binding NBS DNA (the Noc-binding site; scaled: cognate 1, non-cognate 0); higher = stronger binding
# Details: with NBS DNA site
# Outline: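 Bacterial one-hybrid selection in E. coli USO rpoZ- hisB- pyrF- with a HIS3 reporter carrying the site 19 bp from the promoter, screening Caulobacter ParB libraries with four specificity codons randomised (NNS). Cells grew 48 hours at 37°C on M9-minus-histidine plus 0.1 mM IPTG and 5 mM 3-AT. Plasmids before and after selection were Illumina-sequenced, three replicate libraries pooled, and variants under 10 reads dropped. Fitness is the log change in variant-to-wild-type read ratio, rescaled to cognate 1, non-cognate 0.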
row,Variant,one-hybrid fitness for binding NBS DNA
1,GVCS,0.297
2,TMLK,≤ 0.2
3,GHKA,≤ 0.2
4,YEPM,≤ 0.2
5,AKHY,≤ 0.2
6,QSYY,≤ 0.2
7,LMMS,≤ 0.2
8,HVRK,≤ 0.2
9,WITR,≤ 0.2
10,QDHV,≤ 0.2
11,CPAE,≤ 0.2
12,LMEF,≤ 0.2
13,RLTG,≤ 0.2
14,QFKL,≤ 0.2
15,YTFA,≤ 0.2
16,PNSG,≤ 0.2
17,PPAT,≤ 0.2
18,NCAA,≤ 0.2
19,RLFI,≤ 0.2
20,WHYG,≤ 0.2
21,LFPR,≤ 0.2
22,SRPK,≤ 0.2
23,VHAL,≤ 0.2
24,PMPC,≤ 0.2
25,ELML,≤ 0.2
26,TGLD,≤ 0.2

row,Variant,one-hybrid fitness for binding NBS DNA
1,QFGC,≤ 0.2
2,SRKG,≤ 0.2
3,THCC,≤ 0.2
4,CGSC,≤ 0.2
5,RAVM,≤ 0.2
6,MLQG,≤ 0.2
7,GRKT,≤ 0.2
8,PESS,≤ 0.2
9,WRNA,≤ 0.2
10,DCVG,≤ 0.2
11,QKLL,≤ 0.2
12,RNIF,≤ 0.2
13,LRLR,≤ 0.2
14,RRWE,≤ 0.2
15,CTMC,≤ 0.2
16,TPVR,0.513
17,KFPV,≤ 0.2
18,KSRA,≤ 0.2
19,NEYN,≤ 0.2
20,RIFG,≤ 0.2
21,QLQF,≤ 0.2
22,PTFC,≤ 0.2
23,LHPS,≤ 0.2
24,VGPT,≤ 0.2
25,SSQM,≤ 0.2
26,SKDI,≤ 0.2

row,Variant,one-hybrid fitness for binding NBS DNA
1,QWRY,≤ 0.2
2,DTHF,≤ 0.2
3,TVKG,≤ 0.2
4,PRWA,≤ 0.2
5,KQGK,≤ 0.2
6,RDDY,≤ 0.2
7,YTAN,≤ 0.2
8,NPYL,≤ 0.2
9,YDNA,≤ 0.2
10,KYVI,≤ 0.2
11,LSSM,≤ 0.2
12,QCDR,0.402
13,RCRV,0.257
14,MSGS,≤ 0.2
15,RCNG,≤ 0.2
16,AMRR,≤ 0.2
17,VNVS,≤ 0.2
18,RWMP,≤ 0.2
19,ATKK,≤ 0.2
20,PASE,≤ 0.2
21,TIIS,≤ 0.2
22,QKKA,0.577
23,RFVP,≤ 0.2
24,YAMK,≤ 0.2
25,QMNR,0.637
26,VLVT,≤ 0.2

row,Variant,one-hybrid fitness for binding NBS DNA
1,RCDD,≤ 0.2
2,PQAM,≤ 0.2
3,EFSG,≤ 0.2
4,RYKH,0.396
5,VRYF,≤ 0.2
6,SFTN,≤ 0.2
7,MSPV,≤ 0.2
8,MYFT,≤ 0.2
9,RFQW,≤ 0.2
10,VKKW,≤ 0.2
11,RFDL,≤ 0.2
12,QLTC,≤ 0.2
13,ESRY,≤ 0.2
14,SGHA,≤ 0.2
15,KLKV,≤ 0.2
16,REEE,≤ 0.2
17,QRYP,≤ 0.2
18,PFAQ,≤ 0.2
19,QVCQ,≤ 0.2
20,YHTC,≤ 0.2
21,PFHM,≤ 0.2
22,VCVL,≤ 0.2
23,MQSI,≤ 0.2
24,MKAS,≤ 0.2
25,VSEN,≤ 0.2
26,PAKQ,≤ 0.2

row,Variant,one-hybrid fitness for binding NBS DNA
1,RFGE,≤ 0.2
2,PVSG,≤ 0.2
3,HMVR,≤ 0.2
4,KARY,≤ 0.2
5,PSMD,≤ 0.2
6,PFRT,≤ 0.2
7,HHGG,≤ 0.2
8,FFGC,≤ 0.2
9,RAWK,≤ 0.2
10,VMIR,≤ 0.2
11,SMSR,≤ 0.2
12,YVSA,≤ 0.2
13,ARDM,≤ 0.2
14,IICT,≤ 0.2
15,VQSI,≤ 0.2
16,FNCR,≤ 0.2
17,ANTG,≤ 0.2
18,VHVT,≤ 0.2
19,CSFG,≤ 0.2
20,VTMS,≤ 0.2
21,RMSV,≤ 0.2
22,QYWG,≤ 0.2
23,QWHC,≤ 0.2
24,NGSA,≤ 0.2
25,LFPP,≤ 0.2
26,GDDA,≤ 0.2

row,Variant,one-hybrid fitness for binding NBS DNA
1,RAIT,0.22
2,DWPL,≤ 0.2
3,NGVF,≤ 0.2
4,IAFR,≤ 0.2
5,REGA,≤ 0.2
6,FLTL,≤ 0.2
7,VSSV,≤ 0.2
8,LRVW,≤ 0.2
9,SCML,≤ 0.2
10,STSR,≤ 0.2
11,QCGR,0.764
12,GDFV,≤ 0.2
13,ICKG,≤ 0.2
14,FDHG,≤ 0.2
15,CING,≤ 0.2
16,RINI,≤ 0.2
17,MEYN,≤ 0.2
18,DAGG,≤ 0.2
19,RISN,≤ 0.2
20,GIPI,≤ 0.2
21,GYGT,≤ 0.2
22,ITRM,≤ 0.2
23,AFLR,≤ 0.2
